Reference: patent US20220073613A1, “ACTIVATABLE MASKED ANTI-CTLA4 BINDING PROTEINS” (Xilio Development, Inc., priority 2018, published 2022)
“And” between values parts separate entries of the source, which are not always exact repeats. Identical values can stand only once.

How the values were obtained:
[1] = tested on: murine tumor, tissue, and plasma conditioned media; experiment: Ex vivo cleavage in murine tumor, tissue, and plasma, CTLA4 ELISA; type: in vitro ADME
Procedure: In another study, ex vivo cleavage in murine tumor, tissue, and plasma was assessed using a CTLA4 ELISA assay. This included the following murine models: C57/B16 (N=9), MC38 in wild type mice (N=9), MC38 in hCTLA4 mice (N=5), MB49 in wild type mice (N=6), MCA205 in wild type mice (N=4), and B16 in wild type mice (N=4). Cleavage in tumors, spleen, liver, kidney, and plasma was assessed. Plasma samples were pooled. Frequency of cleavage and the percentage of the molecule cleaved (median) were calculated.

[2] = Pharmacokinetics in cynomolgus monkeys; type: in vivo; details: 10 mg/kg intravenous dose
[3] = tested on: healthy monkey (cynomolgus) tissues and plasma; experiment: Ex vivo cleavage in healthy monkey tissues and plasma, CTLA4 ELISA; type: in vitro ADME
Procedure: In another study, ex vivo cleavage of healthy monkey (cynomolgus) tissues (N=2) and plasma (N=3) was assessed using a CTLA4 ELISA assay. Tissues tested included kidney, spleen, liver, bladder, skin, colon, and lung.

[4] = tested on: human tumor tissue and normal tissue adjacent to tumor tissue (NAT); experiment: Anti-CTLA4 ELISA cleavage analysis with human tumor tissue and NAT (CHTN); type: in vitro ADME
Procedure: Anti-CTLA4 ELISA analyses were performed using human tumor tissue and normal tissue adjacent to tumor tissue (NAT) obtained from the Cooperative Human Tissue Network (CHTN). The antibodies tested include Antibody 2-14, Antibody 2-16, and Antibody 1334. […] The percentage of molecule cleaved by the tumor is slightly higher for Antibody 2-16 (26%) than Antibody 2-14 (22%). The overall percentage of molecule cleaved by the NAT is higher for Antibody 2-14 (24%) than Antibody 2-16 (7%).

[5] = tested on: MB49 tumors; experiment: MB49 murine bladder tumor model, efficacy and pharmacodynamics; type: in vivo, C57/BL6-huCTLA4 mice
Procedure: Efficacy and pharmacodynamics (PD) of anti-CTLA4 antibodies were assessed using the MB49 murine bladder tumor model. Efficacy was assessed by administering each test antibody (RSV-m control antibody, ipilimumab, Antibody 2-6, Antibody 2-14, and Antibody 2-15) and then assessing tumor volume and body weight. The anti-RSV control antibody contains S239D and I332E mutations (RSV-m control antibody). Peripheral immunophenotyping was also carried out on day 5, which assessed the percentage of CD4+Ki67+ cells and the percentage of CD4+ICOS+ cells in the peripheral blood on day 5 following administration. As used herein, dosing in mg/kg is also referred to as “mpk.” MB49 cells were inoculated subcutaneously into C57/BL6-huCTLA4 mice. Treatment started when the tumors reached approximately 350 mm^3. A One-way ANOVA with Dunnett's post-test was performed to determine the statistical significance of treatment vs control (RSV-m control). *P<0.05; **P<0.01; ***P<0.001; ****P<0.0001.
Pharmacodynamics is assessed by administering antibody to each of five cohorts of mice, with dosing (mg/kg) as shown in Table 16. Immunophenotyping among other readouts are performed in the tumor, liver, spleen, and blood. T cells are assessed by measuring Foxp3+CD25+ cells as a percentage of CD4+ cells, and CD8+ cells are measured as a percentage of CD45+ cells. Cleavage and drug levels in tumors, liver, kidney, spleen, and plasma is also assessed.

[6] = In vivo cleavage in plasma of healthy cynomolgus monkeys, CE and MS
Procedure: In another study, in vivo cleavage was assessed in the plasma of healthy cynomolgus monkeys at 1 hour, 1 day, and 7 days after administration. Cleavage was identified by capillary electrophoresis (CE) and by mass spectrometry (MS). The abundance of cleavage products at expected cleavage site within Antibody 2-14 (VPLS**LY) was calculated. Cleavage at another site (VPLSLY**SGG) was also calculated for comparison. The abundance of cleavage for Antibody 2-16 was also calculated.

B1: Antibody 2-14: masked Antibody 2-6: mask CPGKGLPSC, cleavable peptide VPLSLY; SEQ ID NO: 358 and 421 (protein)
light: ACPGKGLPSCGGGSSGGSGVPLSLYSGGEIVLTQSPDFQSVTPKEKVTITCSANSALSYMYWYQQKPDQSPKLWVHGTSNLASGVPSRFSGSGSGTDFTLTINSLEAEDAATYYCHHWSNTQWTFGGGTKVEIKRTVAAPSVFIFPPSDEQLKSGTASVVCLLNNFYPREAKVQWKVDNALQSGNSQESVTEQDSKDSTYSLSSTLTLSKADYEKHKVYACEVTHQGLSSPVTKSFNRGEC
heavy: QVQLVQSGAEVKKPGSSVKVSCKASGYTFTNYFMNWVRQAPGQGLEWMGRVDPEQGRADYAEKFKKRVTITADKSTSTAYMELSSLRSEDTAVYYCARRAMDNYGFAYWGQGTLVTVSS[human IgG1 constant region with changes left out here]
Percentage (%) cleaved molecule ([1]; B16-wt, Kidney (n = 4)): 16% | Percentage (%) cleaved molecule ([1]; B16-wt, Liver (n = 4)): 2% | Percentage (%) cleaved molecule ([1]; B16-wt, Plasma (n = 1)): 0% | Percentage (%) cleaved molecule ([1]; B16-wt, Spleen (n = 4)): 2% | Percentage (%) cleaved molecule ([1]; B16-wt, Tumor (n = 4)): 0% | Percentage (%) cleaved molecule ([1]; C57/B16-wt, Kidney (n = 9)): 7% | Percentage (%) cleaved molecule ([1]; C57/B16-wt, Liver (n = 9)): 2% | Percentage (%) cleaved molecule ([1]; C57/B16-wt, Plasma (n = 2)): 6% | Percentage (%) cleaved molecule ([1]; C57/B16-wt, Spleen (n = 9)): 3% | Percentage (%) cleaved molecule ([1]; MB49-wt, Kidney (n = 6)): 9% | Percentage (%) cleaved molecule ([1]; MB49-wt, Liver (n = 6)): 0% | Percentage (%) cleaved molecule ([1]; MB49-wt, Spleen (n = 6)): 3% | Percentage (%) cleaved molecule ([1]; MB49-wt, Tumor (n = 6)): 1% | Percentage (%) cleaved molecule ([1]; MC38-hCTLA4, Kidney (n = 5)): 25% | Percentage (%) cleaved molecule ([1]; MC38-hCTLA4, Liver (n = 5)): 2% | Percentage (%) cleaved molecule ([1]; MC38-hCTLA4, Plasma (n = 1)): 1% | Percentage (%) cleaved molecule ([1]; MC38-hCTLA4, Spleen (n = 5)): 7% | Percentage (%) cleaved molecule ([1]; MC38-hCTLA4, Tumor (n = 5)): 0% | Percentage (%) cleaved molecule ([1]; MC38-wt, Kidney (n = 9)): 8% | Percentage (%) cleaved molecule ([1]; MC38-wt, Liver (n = 9)): 2% | Percentage (%) cleaved molecule ([1]; MC38-wt, Plasma (n = 1)): 1% | Percentage (%) cleaved molecule ([1]; MC38-wt, Spleen (n = 9)): 4% | Percentage (%) cleaved molecule ([1]; MC38-wt, Tumor (n = 9)): 1% | Percentage (%) cleaved molecule ([1]; MCA205-wt, Liver (n = 4)): 0% | Percentage (%) cleaved molecule ([1]; MCA205-wt, Plasma (n = 1)): 0% | Percentage (%) cleaved molecule ([1]; MCA205-wt, Spleen (n = 4)): 0% | Percentage (%) cleaved molecule ([1]; MCA205-wt, Tumor (n = 4)): 2% | Frequency of cleavage ([1]; kidney conditioned media of B16-wt): 100% | Frequency of cleavage ([1]; kidney conditioned media of MB49-wt): 100% | Frequency of cleavage ([1]; kidney conditioned media of MC38-hCTLA4): 100% | Frequency of cleavage ([1]; kidney conditioned media of MC38-wt): 100% | Frequency of cleavage ([1]; kidney conditioned media of MCA205-wt): 100% | Frequency of cleavage ([1]; tumor conditioned media of MB49-wt): 17% | Frequency of cleavage ([1]; tumor conditioned media of MCA205-wt): 25% | pharmacokinetics (level of antibody in plasma over 14 days) [2]: favorable pharmacokinetics | percentage of cleavage ([3]; cyno bladder): 37% | percentage of cleavage ([3]; cyno colon): 36% | percentage of cleavage ([3]; cyno lung): 88% | percentage of cleavage ([3]; cyno plasma): 4% | Frequency of cleavage ([4]; Bladder, NAT): 3/3 | Percent (%) of cleavage ([4]; Bladder, NAT): 56% | Frequency of cleavage ([4]; Bladder, Tumor): 4/5 | Percent (%) of cleavage ([4]; Bladder, Tumor): 7% | Frequency of cleavage ([4]; Breast, NAT): 3/4 | Percent (%) of cleavage ([4]; Breast, NAT): 64% | Frequency of cleavage ([4]; Breast, Tumor): 3/4 | Percent (%) of cleavage ([4]; Breast, Tumor): 37% | Frequency of cleavage ([4]; Colon, NAT): 8/8 | Percent (%) of cleavage ([4]; Colon, NAT): 34% | Frequency of cleavage ([4]; Colon, Tumor): 7/7 | Percent (%) of cleavage ([4]; Colon, Tumor): 46% | Frequency of cleavage ([4]; Liver, NAT): 4/5 | Percent (%) of cleavage ([4]; Liver, NAT): 28% | Frequency of cleavage ([4]; Liver, Tumor): 3/6 | Percent (%) of cleavage ([4]; Liver, Tumor): 2% | Frequency of cleavage ([4]; Lung, NAT): 5/6 | Percent (%) of cleavage ([4]; Lung, NAT): 3% | Frequency of cleavage ([4]; Lung, Tumor): 4/7 | Percent (%) of cleavage ([4]; Lung, Tumor): 4% | Frequency of cleavage ([4]; Lymph node, Tumor): 1/1 | Percent (%) of cleavage ([4]; Lymph node, Tumor): 2% | Frequency of cleavage ([4]; Melanoma, NAT): 1/1 | Percent (%) of cleavage ([4]; Melanoma, NAT): 100% | Frequency of cleavage ([4]; Melanoma, Tumor): 3/3 | Frequency of cleavage ([4]; Ovary, NAT): 1/1 | Percent (%) of cleavage ([4]; Ovary, NAT): 4% | Frequency of cleavage ([4]; Ovary, Tumor): 4/9 | Percent (%) of cleavage ([4]; Ovary, Tumor): 5% | Frequency of cleavage ([4]; Renal cell, NAT): 19/25 | Frequency of cleavage ([4]; Renal cell, Tumor): 15/26 | Percent (%) of cleavage ([4]; Renal cell, Tumor): 25% | Frequency of cleavage, as percent ([4]; Total, NAT): 83% | Percent (%) of cleavage ([4]; Total, NAT): 24% | Frequency of cleavage ([4]; Total, NAT (samples cleaved/samples)): 44/53 | Frequency of cleavage, as percent ([4]; Total, Tumor): 65% | Percent (%) of cleavage ([4]; Total, Tumor): 22% | Frequency of cleavage ([4]; Total, Tumor (samples cleaved/samples)): 44/68 | CD8/Treg ratios in tumors ([5]; 3 mg/kg, day 7): highest CD8/Treg ratios | tumor weight ([5]; 3 mg/kg, day 7): lowest tumor weights | T-cell activation (CD4+Ki67+ and CD4+ICOS+ cells in peripheral blood) ([5]; day 5, 10 mg/kg versus ipilimumab at 3 mg/kg): lower T-cell activation | Regulatory T cell depletion and CD8+ T cell activation in the tumor microenvironment ([5]; mouse, in vivo): is observed | abundance of cleavage product VPLS**LY ([6]; 1 hour): 0% | abundance of cleavage product VPLSLY**SGG ([6]; 1 hour): 0% | abundance of the intact (uncleaved) antibody ([6]; 1 hour): 100% | cleavage by capillary electrophoresis (CE) ([6]; 1 hour, all three subjects): 0% | cleavage by mass spectrometry (MS) ([6]; 1 hour, subject #3): 0% | abundance of cleavage product VPLS**LY ([6]; 24 hours): 17% | abundance of cleavage product VPLSLY**SGG ([6]; 24 hours): 1% | abundance of the intact (uncleaved) antibody ([6]; 24 hours): 82.1% | abundance of cleavage product VPLS**LY ([6]; 72 hours): 32.3% | abundance of cleavage product VPLSLY**SGG ([6]; 72 hours): 0% | abundance of the intact (uncleaved) antibody ([6]; 72 hours): 67.7% | cleavage by capillary electrophoresis (CE) ([6]; day 1, subjects #1, #3, #5): 8% and 6% and 4% | cleavage by mass spectrometry (MS) ([6]; day 7, subject #3): 32.3% | cleavage by capillary electrophoresis (CE) ([6]; day 7, subjects #1, #3, #5): 35% and 32% and 31%
